In paper PMC9911399, “Two distinct binding modes provide the RNA-binding protein RbFox with extraordinary sequence specificity” one finds binding signal data, which are given here for 31 molecules.

Residue numbers refer to the chain shown, from its start. The list shows a part of the results.

T1: RBFOX1 RRM RbFoxmut (Fox-RRM*) (Homo sapiens, UniProt Q9NWB1 109-208, R118D;E147R;N151S;E152T)
T1 sequence: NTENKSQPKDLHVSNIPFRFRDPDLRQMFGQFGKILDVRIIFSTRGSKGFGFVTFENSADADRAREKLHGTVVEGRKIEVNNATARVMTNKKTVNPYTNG

B1: AUAAGGG (DNA:RNA)
RNA: GGGAGACCGGAAUUCAGAUUGUCCAUAAGGGUUAAAUCCCGUCGUAGCCACCA
DNA 1: CAATCTGAATTCCGGTCTCCC
DNA 2: TGGTGGCTACGACGGGATT
B2: UGUCUUC (DNA:RNA)
RNA: GGGAGACCGGAAUUCAGAUUGUCCUGUCUUCUUAAAUCCCGUCGUAGCCACCA
DNA 1: CAATCTGAATTCCGGTCTCCC
DNA 2: TGGTGGCTACGACGGGATT
B3: ACAUUCA (DNA:RNA)
RNA: B1 RNA with U26C, A28U, G29U, G30C, G31A
DNA 1: CAATCTGAATTCCGGTCTCCC
DNA 2: TGGTGGCTACGACGGGATT
B4: UGUAGCU (DNA:RNA)
RNA: B2 RNA with C28A, U29G, U30C, C31U
DNA 1: CAATCTGAATTCCGGTCTCCC
DNA 2: TGGTGGCTACGACGGGATT
B5: UAACACC (DNA:RNA)
RNA: B2 RNA with G26A, U27A, U29A, U30C
DNA 1: CAATCTGAATTCCGGTCTCCC
DNA 2: TGGTGGCTACGACGGGATT
B6: GGUCGGA (DNA:RNA)
RNA: B2 RNA with U25G, U29G, U30G, C31A
DNA 1: CAATCTGAATTCCGGTCTCCC
DNA 2: TGGTGGCTACGACGGGATT
B7: GAAAGUG (DNA:RNA)
RNA: B1 RNA with A25G, U26A, G30U
DNA 1: CAATCTGAATTCCGGTCTCCC
DNA 2: TGGTGGCTACGACGGGATT
B8: CAUGGGU (DNA:RNA)
RNA: B1 RNA with A25C, U26A, A27U, A28G, G31U
DNA 1: CAATCTGAATTCCGGTCTCCC
DNA 2: TGGTGGCTACGACGGGATT
B9: CCACAUC (DNA:RNA)
RNA: B2 RNA with U25C, G26C, U27A, U29A
DNA 1: CAATCTGAATTCCGGTCTCCC
DNA 2: TGGTGGCTACGACGGGATT
B10: UGGCUCG (DNA:RNA)
RNA: B2 RNA with U27G, U30C, C31G
DNA 1: CAATCTGAATTCCGGTCTCCC
DNA 2: TGGTGGCTACGACGGGATT
B11: AAAAUCU (DNA:RNA)
RNA: B1 RNA with U26A, G29U, G30C, G31U
DNA 1: CAATCTGAATTCCGGTCTCCC
DNA 2: TGGTGGCTACGACGGGATT
B12: GCGGAAG (DNA:RNA)
RNA: B1 RNA with A25G, U26C, A27G, A28G, G29A, G30A
DNA 1: CAATCTGAATTCCGGTCTCCC
DNA 2: TGGTGGCTACGACGGGATT
B13: AAUAAAC (DNA:RNA)
RNA: B1 RNA with U26A, A27U, G29A, G30A, G31C
DNA 1: CAATCTGAATTCCGGTCTCCC
DNA 2: TGGTGGCTACGACGGGATT
B14: CUGGGCA (DNA:RNA)
RNA: B1 RNA with A25C, A27G, A28G, G30C, G31A
DNA 1: CAATCTGAATTCCGGTCTCCC
DNA 2: TGGTGGCTACGACGGGATT
B15: AAUGCAC (DNA:RNA)
RNA: B2 RNA with U25A, G26A, C28G, U29C, U30A
DNA 1: CAATCTGAATTCCGGTCTCCC
DNA 2: TGGTGGCTACGACGGGATT
B16: CCUUACC (DNA:RNA)
RNA: B2 RNA with U25C, G26C, C28U, U29A, U30C
DNA 1: CAATCTGAATTCCGGTCTCCC
DNA 2: TGGTGGCTACGACGGGATT
B17: CGUUUGA (DNA:RNA)
RNA: B2 RNA with U25C, C28U, U30G, C31A
DNA 1: CAATCTGAATTCCGGTCTCCC
DNA 2: TGGTGGCTACGACGGGATT
B18: UUAGCCA (DNA:RNA)
RNA: B1 RNA with A25U, A28G, G29C, G30C, G31A
DNA 1: CAATCTGAATTCCGGTCTCCC
DNA 2: TGGTGGCTACGACGGGATT
B19: GUCCGGA (DNA:RNA)
RNA: B1 RNA with A25G, A27C, A28C, G31A
DNA 1: CAATCTGAATTCCGGTCTCCC
DNA 2: TGGTGGCTACGACGGGATT
B20: GCAGUGG (DNA:RNA)
RNA: B1 RNA with A25G, U26C, A28G, G29U
DNA 1: CAATCTGAATTCCGGTCTCCC
DNA 2: TGGTGGCTACGACGGGATT
B21: CCUUGGA (DNA:RNA)
RNA: B1 RNA with A25C, U26C, A27U, A28U, G31A
DNA 1: CAATCTGAATTCCGGTCTCCC
DNA 2: TGGTGGCTACGACGGGATT
B22: UGGCCCU (DNA:RNA)
RNA: B2 RNA with U27G, U29C, U30C, C31U
DNA 1: CAATCTGAATTCCGGTCTCCC
DNA 2: TGGTGGCTACGACGGGATT
B23: CCAACCG (DNA:RNA)
RNA: B1 RNA with A25C, U26C, G29C, G30C
DNA 1: CAATCTGAATTCCGGTCTCCC
DNA 2: TGGTGGCTACGACGGGATT
B24: AAGGAUU (DNA:RNA)
RNA: B1 RNA with U26A, A27G, A28G, G29A, G30U, G31U
DNA 1: CAATCTGAATTCCGGTCTCCC
DNA 2: TGGTGGCTACGACGGGATT
B25: UCACUAU (DNA:RNA)
RNA: B2 RNA with G26C, U27A, U30A, C31U
DNA 1: CAATCTGAATTCCGGTCTCCC
DNA 2: TGGTGGCTACGACGGGATT
B26: AUGGACU (DNA:RNA)
RNA: B1 RNA with A27G, A28G, G29A, G30C, G31U
DNA 1: CAATCTGAATTCCGGTCTCCC
DNA 2: TGGTGGCTACGACGGGATT
B27: AGCUAGG (DNA:RNA)
RNA: B1 RNA with U26G, A27C, A28U, G29A
DNA 1: CAATCTGAATTCCGGTCTCCC
DNA 2: TGGTGGCTACGACGGGATT
B28: UGGCUGU (DNA:RNA)
RNA: B2 RNA with U27G, U30G, C31U
DNA 1: CAATCTGAATTCCGGTCTCCC
DNA 2: TGGTGGCTACGACGGGATT
B29: GUUGCCA (DNA:RNA)
RNA: B1 RNA with A25G, A27U, A28G, G29C, G30C, G31A
DNA 1: CAATCTGAATTCCGGTCTCCC
DNA 2: TGGTGGCTACGACGGGATT
B30: CGUGAAC (DNA:RNA)
RNA: B2 RNA with U25C, C28G, U29A, U30A
DNA 1: CAATCTGAATTCCGGTCTCCC
DNA 2: TGGTGGCTACGACGGGATT
B31: AGCUGCA (DNA:RNA)
RNA: B1 RNA with U26G, A27C, A28U, G30C, G31A
DNA 1: CAATCTGAATTCCGGTCTCCC
DNA 2: TGGTGGCTACGACGGGATT

The target of this experiment is T1, RBFOX1 RRM RbFoxmut (Fox-RRM*). Kind of experiment: EMSA; HiTS-Eq, 1 nM pool, 10 min; buffer printed only for the single-RNA assays: 10 mM Tris pH 7.5, 150 mM NaCl, 3.4 mM EDTA, 0.001% NP-40, 30 C. The following applies: tags: His6 N-terminal (pET28a); label: 5' 32P. In outline: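 Purified RbFox RRM, wild type or mutant, was incubated for 10 min in 50 µL with 1 nM of a 5′-radiolabelled RNA pool carrying 7 randomized nucleotides, whose flanks were annealed to DNA oligonucleotides, over a series of increasing protein concentrations. Unbound RNA was resolved on 8% native PAGE, cut out, reverse-transcribed, barcoded by PCR and sequenced on an Illumina HiSeq 2500. Relative association constants were derived from changes in read counts for each RNA species versus the control reaction and normalised to the cognate motif.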
In general terms: Mobility shift assays separate free from complexed probe on a gel.
Take B1: the binding signal is 0.0543 KA relative to UGCAUGU.

Turning to B2, the binding signal is 0.201 KA relative to UGCAUGU.

In the case of B3, the binding signal was 0.0972 KA relative to UGCAUGU.

For the molecule B4, the binding signal was 0.102 KA relative to UGCAUGU.

Take B5: the binding signal is 0.0638 KA relative to UGCAUGU.

On to B6, for which the binding signal is 0.0773 KA relative to UGCAUGU.

Take B7: the binding signal was 0.0907 KA relative to UGCAUGU.

As for B8, the binding signal was 0.114 KA relative to UGCAUGU.

B9: the binding signal was 0.0576 KA relative to UGCAUGU.

Regarding B10, the binding signal was 0.304 KA relative to UGCAUGU.

Consider B11, for which the binding signal is 0.0542 KA relative to UGCAUGU.

For the molecule B12, the binding signal is 0.0917 KA relative to UGCAUGU.

For the molecule B13, the binding signal was 0.0401 KA relative to UGCAUGU.

As to B14, the binding signal was 0.092 KA relative to UGCAUGU.

For B15, the binding signal is 0.0794 KA relative to UGCAUGU.

In the case of B16, the binding signal was 0.0957 KA relative to UGCAUGU.

For B17, the binding signal is 0.205 KA relative to UGCAUGU.

In the case of B18, the binding signal is 0.101 KA relative to UGCAUGU.

For B19, the binding signal is 0.0725 KA relative to UGCAUGU.

With B20, the binding signal is 0.0932 KA relative to UGCAUGU.

As for B21, the binding signal was 0.0815 KA relative to UGCAUGU.

B22: the binding signal is 0.0838 KA relative to UGCAUGU.

On to B23, for which the binding signal was 0.145 KA relative to UGCAUGU.

Consider B24, for which the binding signal was 0.0826 KA relative to UGCAUGU.

B25: the binding signal was 0.0711 KA relative to UGCAUGU.

As for B26, the binding signal was 0.0593 KA relative to UGCAUGU.

On to B27, for which the binding signal is 0.126 KA relative to UGCAUGU.

Take B28: the binding signal is 0.299 KA relative to UGCAUGU.

B29: the binding signal is 0.0944 KA relative to UGCAUGU.

For the molecule B30, the binding signal is 0.0865 KA relative to UGCAUGU.

Consider B31, for which the binding signal was 0.195 KA relative to UGCAUGU.
